Data taken from PubChem BioAssay AID504339 (National Center for Advancing Translational Sciences (NCATS), 2011).
The whole screen tested about 390,000 compounds, of which about 17,000 (4.4%) were called active. The shares of active, inactive and inconclusive entries below differ from those in the screen. The call rests on the fitted dose curve; in most records, active means well fitted inhibition curve with a large enough effect; inconclusive means small, poorly fitted or top-dose-only effect; inactive means no such curve, though single readings can be large or run the other way. A potency beside an inconclusive call is a rough fit, not a confirmed value.

Target: Lysine-specific demethylase 4A (Homo sapiens) (UniProt O75164)
Experiment: qHTS Assay for Inhibitors of JMJD2A-Tudor Domain; further: nearly all actives have a fitted effect of over 50% in size
Conditions: AlphaScreen JMJD2A-Tudor / H3K4me3 peptide binding; series mostly up to 114 µM
Potency means the concentration at half of the fitted maximal effect; tags describe the fitted curve by direction and shape.

UniProt O75164, sequence (O75164 whole entry, looked up, the tested form may be a part): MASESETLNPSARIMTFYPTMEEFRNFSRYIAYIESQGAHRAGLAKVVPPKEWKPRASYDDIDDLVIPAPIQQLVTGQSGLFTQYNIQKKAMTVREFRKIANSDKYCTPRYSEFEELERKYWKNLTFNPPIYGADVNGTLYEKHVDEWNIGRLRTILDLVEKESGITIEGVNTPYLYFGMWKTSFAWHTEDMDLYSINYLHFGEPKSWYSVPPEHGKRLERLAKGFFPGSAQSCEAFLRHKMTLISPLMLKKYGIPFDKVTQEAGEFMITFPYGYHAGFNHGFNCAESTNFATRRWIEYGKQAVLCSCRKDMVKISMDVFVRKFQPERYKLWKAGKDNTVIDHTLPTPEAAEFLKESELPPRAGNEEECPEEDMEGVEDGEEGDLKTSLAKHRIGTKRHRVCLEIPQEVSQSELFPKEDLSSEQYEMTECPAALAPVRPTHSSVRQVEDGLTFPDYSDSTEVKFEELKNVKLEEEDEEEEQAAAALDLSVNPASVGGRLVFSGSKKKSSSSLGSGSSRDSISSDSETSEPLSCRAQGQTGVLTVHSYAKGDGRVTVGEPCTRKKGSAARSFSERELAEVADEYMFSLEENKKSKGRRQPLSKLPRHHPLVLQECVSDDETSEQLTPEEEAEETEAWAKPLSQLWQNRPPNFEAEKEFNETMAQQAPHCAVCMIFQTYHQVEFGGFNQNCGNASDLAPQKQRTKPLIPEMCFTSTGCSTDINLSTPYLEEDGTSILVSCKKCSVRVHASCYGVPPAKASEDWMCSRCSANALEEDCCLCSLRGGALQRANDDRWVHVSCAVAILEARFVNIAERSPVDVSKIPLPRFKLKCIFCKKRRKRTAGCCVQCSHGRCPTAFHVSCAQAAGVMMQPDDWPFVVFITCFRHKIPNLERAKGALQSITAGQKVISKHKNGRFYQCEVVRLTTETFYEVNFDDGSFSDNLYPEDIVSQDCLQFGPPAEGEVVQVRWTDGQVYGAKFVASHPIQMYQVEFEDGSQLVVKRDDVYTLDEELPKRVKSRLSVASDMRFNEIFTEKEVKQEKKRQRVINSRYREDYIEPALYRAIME

SMILES	Potency
O=C(O)C(Cc1c[nH]c2ccccc12)NS(=O)(=O)c1ccc(Br)cc1 (configuration not stated)	active: 28.2 µM
CS(=O)(=O)NN1C(=O)c2ccccc2NC1c1cccs1 (configuration not stated)	active: 3.55 µM
O=C(c1ccccc1)c1nn(-c2ccccc2)c2nnc(Cc3ccccc3)c(=O)n12	inconclusive: 8.91 µM [inhibitor, full curve, poor fit]
O=[N+]([O-])c1ccccc1/C=N/N1CCN(c2ccc(Cl)cc2)CC1	inconclusive: 10 µM [inhibitor, partial curve]
COc1ccc(NC(=O)c2ccc(CN3C(=O)CCn4nc(C)cc43)cc2)c(OC)c1	inactive
CCOC(=O)c1ccc(NC(=O)CSc2nc3c(c(=O)n2CC)SC(C)C3)cc1 (configuration not stated)	inconclusive: 63.1 µM [inhibitor, partial curve, poor fit]
CC(=O)OC(C(=O)NC1CCCCC1)c1ccc(C#N)cc1 (configuration not stated)	inconclusive: 89.1 µM [inhibitor, single point]
Cn1c(=O)n(Cc2ccccc2Cl)c2ccccc21	inconclusive: 14.1 µM [inhibitor, partial curve, poor fit]
CCOc1ccc(CNC(=O)c2ccc(Sc3ccc(Cl)cc3)c(NC(C)=O)c2)cc1	inconclusive: 39.8 µM [inhibitor, single point]
CCOC(=O)c1c(C)[nH]c(C)c1C(=O)COC(=O)c1ccc(Cl)c(S(=O)(=O)NCc2ccccc2)c1	active: 56.2 µM
COc1ccc(Cl)cc1-n1c(C)cc(C(=O)OCC(=O)N2CC(=O)Nc3ccccc32)c1C	inconclusive: 44.7 µM [inhibitor, partial curve]
COc1ccc(OCc2ccc(-c3nc(C#N)c(N4CCN(C)CC4)o3)o2)cc1	active: 56.2 µM
CCOC(=O)c1cnn(-c2ccccc2)c1-n1cccc1C(=O)C(=O)Nc1ccc(OC)cc1	inconclusive: 50.1 µM [inhibitor, partial curve, poor fit]
CC(C)(C)c1ccc(OCc2ccc(C(=O)N/N=C/c3ccc(O)c(O)c3)cc2)cc1	inconclusive: 39.8 µM [inhibitor, partial curve]
CCN1CCn2c3c(c4cc(C)ccc42)CCCC31 (configuration not stated)	inconclusive: 56.2 µM [inhibitor, partial curve]
COc1ccc(-n2c(SCC(=O)NCc3cccs3)nnc2-c2ccoc2C)cc1	inconclusive: 100 µM [inhibitor, partial curve, poor fit]
CCCNC(=O)NNC(=O)c1ccc(F)cc1	inconclusive: 28.2 µM [inhibitor, partial curve]
